Experimental data reported in paper PMC10726135.
The list shows a part of the results. At the low end of the ranking the order means little. Measured with an extract: partners may take part in the binding.

Target: T1, HNF4alpha2 (COS-7 nuclear extract) (UniProt P41235)
T1 sequence: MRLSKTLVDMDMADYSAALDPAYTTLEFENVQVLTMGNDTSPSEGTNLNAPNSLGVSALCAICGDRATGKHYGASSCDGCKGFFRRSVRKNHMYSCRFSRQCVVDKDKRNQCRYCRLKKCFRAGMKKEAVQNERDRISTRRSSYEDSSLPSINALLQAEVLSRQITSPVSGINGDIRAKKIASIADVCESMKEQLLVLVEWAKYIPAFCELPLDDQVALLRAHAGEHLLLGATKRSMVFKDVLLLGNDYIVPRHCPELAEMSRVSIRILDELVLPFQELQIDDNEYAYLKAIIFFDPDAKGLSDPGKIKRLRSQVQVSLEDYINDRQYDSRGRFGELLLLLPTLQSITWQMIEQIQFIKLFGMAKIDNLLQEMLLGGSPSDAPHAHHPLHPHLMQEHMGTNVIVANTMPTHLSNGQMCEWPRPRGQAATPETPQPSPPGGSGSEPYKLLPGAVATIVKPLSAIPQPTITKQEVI
Assay: protein-binding microarray
Settings: COS-7 nuclear extract on double-stranded Agilent 4x180k PBM; binding buffer, salt, pH and temperature not given; high values mean tight binding; double strand, one strand shown; sequences stand for … in …GCCTAGGGAGATTAGAGTATCGGTCGA

Row | Sequence | binding signal (log2 normalized intensity)
1 | CTGTCTGCCATGGGCCTGGCTGAGCCTGGG | -1.12
2 | TTGTTTGTTTTGAGGGTTAAAGGAGATAAT | 2.03
3 | CAGAAAGGCAAGAAGTATGACAACAAAGCA | -1.05
4 | TTTGAAACATAACAGCAACAACACAGATCA | -1.2
5 | TCTTGGCTTCAAAGGTCACTGTCCTAATTT | 3.85
6 | AAAAAACACTCTCAATCTTTGCCCTCTTGG | 2.88
7 | GCTGGAGGGCAAAGGTCAGAGGCTGATTTC | 6
8 | AACCCCACACCTCCCTTGCACCAGTTTCTC | 2.3
9 | TACCACCGTATTCCTAGCTCCTAGCACGTT | -1.17
10 | AAAAGCTTATCTGCACAATGAAACTTGGTC | 0.73
11 | CAGAGGGGTTCCTCAGTAAATGCTGGAGAT | -0.273
12 | GGAGGCATTCCTGCAATCAGAGCTGGATGT | -0.787
13 | GGCGACGGACGCGCCGCGCCGGGGAAGCTG | -1.07
14 | TGGTGAAAGGAGGAATCTGTGAAGGTCAGG | 1.21
15 | ATGTCTGTAGGTAAGCACAAAGTACAGCTT | 1.15
16 | GAGCTGGGTGGCCCTCTCCCGGGGAGGTCA | 1.97
17 | CCAGAATTGCTTTACGAAGTGTTTGTCAAG | 1.42
18 | CCACACCGAGATAGTAGAGATAGTGATCAA | -0.994
19 | GAAAACATCATTCCGTGACTGAGCTCGCGC | -0.72
20 | AAAGACCTTGCTGATAAAACAGCATGCGGT | -1.01
21 | AGGGGGATTACCTAAACAGCAACTGTAGTG | -1.12
22 | CCACCCCTCCTCCTGGGGGCTTTTGTTTAG | 1.46
23 | ATGTCAGGAGCCCCACTGTAGTAAGGGAGT | -0.326
24 | AGTTGATTGCACCCTTCCCTAAGATTTATC | 1.02
25 | AGGCCATCCCAGTTACTCAGCGAATACCAA | -1.18

Row | Sequence | binding signal (log2 normalized intensity)
26 | GATTACGTGTTCCCAGGATGAGGCCGTTCT | 1.32
27 | TGTGTACCTCATCTTCTTTCCTGGTGCCTC | 1.39
28 | CGCCTGACCTGGCCCCTGAGGGTGCTGAGC | -0.901
29 | TCATTCCCCTAGTATATTGGCTTGGCTGTG | 2.58
30 | AGCCTGCAGCACCTTGATGCTGGACTTCAG | 2.61
31 | GTTCTCTCCGGGTAAAGGTGAAGGCTGACC | 1.43
32 | ACAGTCTTGGGCACAAAGTACAAAAGAGGC | 1.44
33 | TTCAAGGGCCACTCAGTTGAAGTTCCAGAA | 0.0749
34 | AGAAGAAAAGAGTTGCTCAAACCAACATTA | -1.16
35 | AACCTAGGAAATCAAAAACCATTTGACAAT | -1.2
36 | GAAGGAGCACCAATGACCTTTGACCCTTCT | 11.1
37 | AAGAAAAAACAGGTGTTCTTTCCCTCCAGC | -1.11
38 | TGGACAGGGGTGTGTTGACCGATAACCCTC | 2.25
39 | TAGCCTGAAAATGTTTGCCGACCTCCTGAC | 0.363
40 | CTGGCAGAGGAAAAAGTCCCTGGTCCCATA | -1.13
41 | TCCAGAACCAAGATTTACATCCTATCCTGG | -0.71
42 | AACAGCACTTGTGCAGTTTTTCTGCCGAAG | -1.1
43 | ACGTTGTACCCCACAGGTATTCTTTCATCC | 1.35
44 | GACCAACAGAGAAGGCCCTGAACTCCCAGC | -1.18
45 | GGGAAAACTGATAAAGGGTGAGTGCATGAA | -1.06
46 | GAAGGAATGTAAACTCCAAGGAGCAAATCC | -1.06
47 | CTAGGAGATACGCCTGAACTTTGATCAGCA | 5.59
48 | GGAATGCCCTTATCTCCCAGCCACCAAATC | 2.35
49 | GGGGCCTTTAGCACCTTCATCCAAAGATGA | -1.15
50 | GATAAAGGGTTACAAACTTCAAGGTCCATT | 1.85

Row | Sequence | binding signal (log2 normalized intensity)
51 | CGACCTTTGCTCCCGACTCTGAGGCTCCAT | 4.94
52 | TTGACTCAGTTGCAGAAAAACAGGTTCTGC | -0.587
53 | GGCCAGGCCAAATCAGAACTGAGTTACTTG | -1.17
54 | GGTCAAGCCCAACCAAAGTAGAGGAATGCT | -1.04
55 | ATCCAGCAGACTTAGACCCTGACCTGGCAT | 1.5
56 | CTGATAGCGAGTTATCTGCATTCCAGCTCA | -1.11
57 | GGAGGAGAGAAGGGCTGAAGGTTAATTCGC | -0.453
58 | ATGTTTCAAGTGGCCTGATTTGACAAGGCA | 1.56
59 | TAAAACAGTCCATTTCAGTGAACTTTTCAA | 1.05
60 | GCCGGGTCACGTGGGTCCAGGGTCACGTGC | 2.79
61 | AATGCTGTTAGCACTCAGTCATTGCCATCT | -1.03
62 | GATACAGATAAATAAATCAAGATCACTGCC | -1.13
63 | CCTATAGCCTCACTTGCTGATAAGGCAGAC | -1.1
64 | TCTGCGCAGGGAGGAGCGCATCGGGCGCCA | -1.09
65 | ATAAAGTGGATGGAGCAATTCAACAACTGT | -1.17
66 | CACCGTTGGAATGTTCCAAGACCTTTGAAG | 1.64
67 | CACGCCCACCCTATTGATGCAAGGACAATG | 1.55
68 | TTTAAGTAAGCCCCCTTCCCCCCTGGGCAA | 4.59
69 | CTGATCAAATTCCACACCCCCCACTCTTCA | 4.34
70 | ATTCAGAATAGTTAAGTAACGTGTCAGAGG | 0.996
71 | CAAAAGTTCAAACTTTATTTGATGATGAAG | 0.732
72 | GTGCTAGCTCCGACTCAGTGGGGGGGGGGG | -1.17
73 | ATTCCATCATCACGGTGGACATTGTCCAAG | 3.16
74 | TTGGCTAAAGTCCAAATTCCTTGGAATACA | 3.12
75 | TGACCTCTGCTTCCTGCTACAGAGCTCAGA | -0.966

Row | Sequence | binding signal (log2 normalized intensity)
76 | CTTGGGAAAGGAGAAGCTGGAGATAAGGAT | -1.14
77 | ATGTACATGGACTTTGAACCAAGATATGCT | 6.75
78 | AATAAATAACTCTAAGAAATAGGTTAAAGA | -0.3
79 | GCTCTAGATCTCAAAGTCCAAATAGCGCTA | 3.11
80 | GGGGCGGTTTTTCCATTGTACTCAGTATGT | 1.97
81 | TGCGGTGAGCATTTGTTTAGGAATTTATCT | -0.542
82 | ATCTCCCAGTTCTTTTGACCTTTGCCTCAT | 7.95
83 | GTATGAGATAAGGCTAGTAACACTCACATT | -1.21
84 | CAAGGCAAGAGAGTCATAAAGGGCAGGAAC | -0.937
85 | GGGGCAATAACCCTAGACACCGGGTGAAGG | -1.09
86 | ACATCTTTAATTATCATCTCTGTGTATAAG | 1.99
87 | TCCAAGGTCACACAGCTAAGAGCCGCAGAG | -1.12
88 | CTTTTGGCCAGAGTAAGGCGGTTCTTGTCT | 0.958
89 | ACACCAGGCCCTCGGCATCATGCCCTTTGG | 3.91
90 | ACATTCAGATTCCTGAGCCCAGATCCTCTA | -1.24
91 | TCCCTTTAGTGGAGTATAGGAACATGAACT | 1.96
92 | CGCAGCACACTGCAGCGGCATTCTCTGGTC | -1.11
93 | TCCAGGGAACTGTCCACCAAGGAGGTGCTG | -1.03
94 | ATGAGGCAAAGGTCAGGAGTTCCATTTAGC | 3.23
95 | CAACCCACTGTTGCCCCTTCCAAAGTCCAC | 5.46
96 | AGGAGACCGAGCAGCTCTTTACAAAGCCCA | -1.13
97 | CTCTGCGCCCTTGGAATATCCTGCCTAACA | -1.04
98 | AGCAGAACCCAGGGTCACAAGGATCCCATT | -1.1
99 | TGTCAACAGCTCAAGTTATCTGAAGCTCTC | -1.2
100 | GAGTCCACGTACTTAACTACTACACTAAAA | -1.19

Row | Sequence | binding signal (log2 normalized intensity)
101 | CTGCAGCTGAGTAGAGGAAAGATAACTAAA | -1.2
102 | GGCTTTATGACCAGTGTGTTGTGCTGACCT | 3.49
103 | CCAAAGTCCATGTTCATAACTGTTAAACTC | 1.56
104 | GGCTGATATCTCTCTGGCTGGTGGGCAAGT | 1.26
105 | CAAATCCAGGATCAAATACAGAATCAATGC | -1.03
106 | AAAAGCAAACCAAAAAGTTGGTTGGAGCTA | -1.34
107 | GCCCTCTTGGTATCAGCTTTGAGACACCTG | -0.876
108 | CTATGTGGTTTTGTAAATATAGGATCATGT | 1.89
109 | AGATTCCTCTGAGTCCTCTTCCCAACTTGG | -1.05
110 | GTCATTAATTAACTTGTGTTCAGAGCTTGC | 1.14
111 | ATGGGAACATTCCTCAGGGAATTTCTAGGT | -1.27
112 | TGATAAGATTTATCTCTCCAAGGTACTGTG | -0.19
113 | GCAGCTCAGACTGCTTCTCTGCTGGGGCCC | -1.1
114 | TTTTCCTTGGCTGTGCTGCCCTTTGCCCTT | 7.6
115 | GGTGACAAGGAAAACTACACTCTTGCTAAA | -1.1
116 | GATGCTGGGCAGCTTGTGTGCGTTTCCCAG | 1.15
117 | TGGATGGATTCAGATCCAGTGGACTCTCTG | 2.94
118 | TTTGCCATTTGGAGAGAGTTTGGCCCCAGT | 2.44
119 | GGGCGTGTAGGGAGTGGTTCCCACAGCCCA | -1.14
120 | GGGAGGACAAAGTTCTGTCCTTTGTCCCCC | 4.32
121 | CTCCTCCCTCAGGGATCTTTGCACTTGATG | 1.32
122 | GCTCTGCATATGCCAACAGGTGCTCTTTAT | 1.37
123 | TAGGCCTCAAGACAAACAATAGATAGGACA | -0.217
124 | TGAGGATGGGCAGTCCCTATAGCCTCACTT | -1.12
125 | GCTGCATTTGTCCGGGTATGTTCTTAAGAT | 1.76

Row | Sequence | binding signal (log2 normalized intensity)
126 | CTGACTTGCAACCTTTGCCCTGTTGTCTTT | 5.43
127 | GAGTGAACCTAGTGGCTGTGGAAGTCTGGC | -0.0781
128 | TTGGCTGATAAAACAAATCTACAAATGTTT | 0.452
129 | AGATAAACCAAGCCTGCAGCACCTTGATGC | -0.938
130 | CAGGATTCTTGCTGCAGCTGGGCTATACAA | -1.12
131 | AAATTCCAATATAGCAAAGAGAGTCAAAGT | 0.882
132 | AAGTATCTCGGTCAAACCTTTGACCCTTTA | 6.7
133 | CTGGCAGTGAAGGTTCAGTGAAGTAGTGTG | 1.66
134 | GGACCACGATCAGCCAGCAGGGGGCGCAGA | -1.06
135 | CCTTGCCTGGCTACCTCTTAGCTACCCTGT | -0.223
136 | CCCCGCCCCCAGTGCACCTTAATAAGCACA | 4.39
137 | TTTCCATTTTTGCTCCTGCACTTTTGTGCT | 1.16
138 | GCACTTTTGGAGTTTGACCTGGAGCCAGGG | 4.6
139 | CTACTGCCAGCCAGGGCCACCCATCAGTGG | -1.02
140 | GTTACCTTGGGGTCAAAGTACATCCCCTAA | 6.4
141 | TGAGAAACCACAGGAGTGCCGTGAGGGGTT | -0.712
142 | GAGATGCTGGGTGGCATAGTTGATGTCAAT | 0.93
143 | CTGAGGTGCTCTCAGATAAGAGATGAGGAA | -1.12
144 | TAGTGATTTAGGCTTTTGGGCCCTGTCTGA | 0.52
145 | AAGCATGACAAAATAACGAAGGCATTCTTA | -1.11
